Experimental data taken from publication PMC10762069.
No constants are given. Whether binding was seen depends on the method and setting. In cells and extracts the contact can be indirect. Some entries that bind do so weakly or less than the wild type. Tags and fused reporters may be left off the sequences shown.

Amino acid sequences for entries named in this document (tags omitted). A change or cut given only in a name is not applied to a line headed by its entry. Chains listed by the source or under a name are the forms on record and can include a tag or linker.
UniProt O35129: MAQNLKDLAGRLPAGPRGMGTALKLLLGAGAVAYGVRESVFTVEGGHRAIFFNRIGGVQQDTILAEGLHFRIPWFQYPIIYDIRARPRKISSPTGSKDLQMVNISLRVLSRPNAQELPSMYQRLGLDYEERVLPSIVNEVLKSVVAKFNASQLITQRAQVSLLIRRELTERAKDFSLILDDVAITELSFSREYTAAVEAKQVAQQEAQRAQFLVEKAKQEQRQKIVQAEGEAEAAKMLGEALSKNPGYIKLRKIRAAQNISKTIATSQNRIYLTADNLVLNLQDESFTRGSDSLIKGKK
mouse Phb2 delete 19-49 (pcDNA3.1-HA-C) (O35129, form named): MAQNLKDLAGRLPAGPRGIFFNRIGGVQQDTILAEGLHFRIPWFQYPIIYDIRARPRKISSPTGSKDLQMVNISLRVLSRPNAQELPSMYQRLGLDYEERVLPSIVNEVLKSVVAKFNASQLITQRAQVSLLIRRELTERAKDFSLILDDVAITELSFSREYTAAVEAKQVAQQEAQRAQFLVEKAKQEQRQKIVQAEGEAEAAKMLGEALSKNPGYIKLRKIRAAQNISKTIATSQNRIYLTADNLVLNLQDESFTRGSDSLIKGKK
mouse Phb2 delete 150-174 (pcDNA3.1-HA-C) (O35129, form named): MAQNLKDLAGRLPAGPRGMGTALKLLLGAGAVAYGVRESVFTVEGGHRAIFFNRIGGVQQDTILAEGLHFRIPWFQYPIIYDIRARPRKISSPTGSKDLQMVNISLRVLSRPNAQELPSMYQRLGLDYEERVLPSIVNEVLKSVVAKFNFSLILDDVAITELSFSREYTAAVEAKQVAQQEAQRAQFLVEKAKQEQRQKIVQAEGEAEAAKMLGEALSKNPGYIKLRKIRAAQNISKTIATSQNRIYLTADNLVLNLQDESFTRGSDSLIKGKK

How the values were obtained:
[1] = target: T1, Myc-tagged GCA (mouse Gca pcDNA3.1-MYC-C) (mouse) (UniProt Q8VC88); assay: co-IP; Myc-GCA and HA-PHB2 co-transfected in HEK 293T; IP with anti-Myc antibody, Western blot with anti-HA; protein A/G beads, 4 °C overnight
T1 sequence: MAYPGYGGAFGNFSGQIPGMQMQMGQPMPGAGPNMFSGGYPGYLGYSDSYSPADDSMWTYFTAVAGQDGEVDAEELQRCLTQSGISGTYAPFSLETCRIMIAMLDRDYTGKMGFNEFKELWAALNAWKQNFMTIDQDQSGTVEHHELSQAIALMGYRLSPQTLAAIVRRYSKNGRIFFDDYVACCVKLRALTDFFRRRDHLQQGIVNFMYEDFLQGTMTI

[2] = target: T1, Myc-tagged GCA (mouse Gca pcDNA3.1-MYC-C) (mouse); assay: co-IP; IP analysis of deletion mutants of GCA with full-length PHB2 and of deletion mutants of PHB2 with full-length GCA; which tag was precipitated is not stated
[3] = target: T2, mouse Gca delete 1-50 (pcDNA3.1-MYC-C) (mouse) (UniProt Q8VC88); assay: as above
T2 sequence: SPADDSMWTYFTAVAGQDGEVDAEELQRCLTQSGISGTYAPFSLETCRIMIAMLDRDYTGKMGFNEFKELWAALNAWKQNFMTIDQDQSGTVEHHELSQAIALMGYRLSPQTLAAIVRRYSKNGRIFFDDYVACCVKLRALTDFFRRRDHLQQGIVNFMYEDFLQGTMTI

[4] = target: T3, mouse Gca delete 158-193 (pcDNA3.1-MYC-C) (mouse) (UniProt Q8VC88); assay: as above
T3 sequence: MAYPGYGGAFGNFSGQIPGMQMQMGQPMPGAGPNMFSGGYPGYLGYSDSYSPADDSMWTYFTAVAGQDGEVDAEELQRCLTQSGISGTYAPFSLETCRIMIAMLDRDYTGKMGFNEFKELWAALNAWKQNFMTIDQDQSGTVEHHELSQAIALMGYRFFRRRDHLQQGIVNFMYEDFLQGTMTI

[5] = target: T4, mouse Gca delete 92-127 (pcDNA3.1-MYC-C) (mouse) (UniProt Q8VC88); assay: as above
T4 sequence: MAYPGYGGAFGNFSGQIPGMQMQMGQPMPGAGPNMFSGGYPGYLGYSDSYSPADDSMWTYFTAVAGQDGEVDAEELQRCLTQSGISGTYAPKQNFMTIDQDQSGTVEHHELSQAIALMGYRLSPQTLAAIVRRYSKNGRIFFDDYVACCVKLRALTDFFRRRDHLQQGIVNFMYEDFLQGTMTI

[6] = target: HA-tagged PHB2 (mouse Phb2 pcDNA3.1-HA) (mouse) (UniProt O35129); assay: co-IP; Myc-GCA and HA-PHB2 co-transfected in HEK 293T; IP with anti-HA antibody, Western blot with anti-Myc; protein A/G beads, 4 °C overnight

With “HA-tagged PHB2 (mouse Phb2 pcDNA3.1-HA) (from UniProt O35129 1-299)” the binding [1] was “binds”, the binding [2] was “binds” and the binding [3] was “no binding”. The binding [4] was “no binding” and the binding [5] was “no binding”.

With “mouse Phb2 delete 1-19 (pcDNA3.1-HA-C) (from UniProt O35129 20-299) (domain or fragment)” the binding [2] was “binds”.

“mouse Phb2 delete 19-49 (pcDNA3.1-HA-C) (from UniProt O35129 1-299)” was tested, and the binding [2] was “binds”.

In the case of “mouse Phb2 delete 150-174 (pcDNA3.1-HA-C) (from UniProt O35129 1-299)”, the binding [2] is reported as “binds”.

In the case of “mouse Phb2 delete 174-299 (pcDNA3.1-HA-C) (from UniProt O35129 1-173) (domain or fragment)”, the binding [2] is reported as “binds”.

B1: Myc-tagged GCA (mouse Gca pcDNA3.1-MYC-C) (protein, UniProt Q8VC88 1-220)
chain: T1 sequence
With B1 the binding [6] was “binds”.
